Measured values from PubChem BioAssay AID1460 (National Center for Advancing Translational Sciences (NCATS), 2008).
In all, about 270,000 compounds went through this assay and about 5,800 (2.1%) were called active. Inconclusive means that the source gave no clear call. Such entries were picked first, then a sample of the others. Calls follow the shape of the dose curve; as a rule, active = well fitted inhibition curve with a large enough effect; inconclusive = small, poorly fitted or top-dose-only effect; inactive = flat fitted curve, though single readings scatter. Potencies of inconclusive entries are doubtful fits and often do not repeat.

target: Microtubule-associated protein tau (Homo sapiens) (UniProt P10636); assay: qHTS for Inhibitors of Tau Fibril Formation, Thioflavin T Binding; conditions: recombinant tau K18 P301L (four-repeat tau fragment), heparin-induced fibrillization, ThT fluorescence; series mostly up to 57.4 µM; activity, negative = inhibition: at the top concentration; also: nearly all actives have a fitted effect of over 55% in size
Sequence of UniProt P10636 (P10636 whole entry, looked up, the tested form may be a part): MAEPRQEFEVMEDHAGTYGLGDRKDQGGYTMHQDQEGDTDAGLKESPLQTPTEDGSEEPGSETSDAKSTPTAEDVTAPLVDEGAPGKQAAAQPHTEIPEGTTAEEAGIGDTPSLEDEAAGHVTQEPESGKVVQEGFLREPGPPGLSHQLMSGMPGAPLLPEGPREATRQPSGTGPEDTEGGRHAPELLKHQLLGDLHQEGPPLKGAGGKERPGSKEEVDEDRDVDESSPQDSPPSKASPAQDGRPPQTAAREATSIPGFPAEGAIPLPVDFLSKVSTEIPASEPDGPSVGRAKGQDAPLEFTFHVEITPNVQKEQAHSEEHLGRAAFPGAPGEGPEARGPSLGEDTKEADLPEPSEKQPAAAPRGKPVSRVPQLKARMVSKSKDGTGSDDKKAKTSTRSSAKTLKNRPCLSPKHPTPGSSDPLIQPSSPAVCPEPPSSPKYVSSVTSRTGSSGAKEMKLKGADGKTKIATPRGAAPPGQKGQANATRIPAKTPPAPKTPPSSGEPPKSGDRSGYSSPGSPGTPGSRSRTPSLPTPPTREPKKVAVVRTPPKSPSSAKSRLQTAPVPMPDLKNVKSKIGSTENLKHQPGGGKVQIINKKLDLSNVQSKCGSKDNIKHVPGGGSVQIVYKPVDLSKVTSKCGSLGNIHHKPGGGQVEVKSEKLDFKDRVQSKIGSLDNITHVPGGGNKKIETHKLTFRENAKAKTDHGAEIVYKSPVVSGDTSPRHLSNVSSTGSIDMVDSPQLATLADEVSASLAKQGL
Summary of the method: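 Aggregation was driven by heparin (20 uM final) acting on recombinant tau […] bearing P301L in 100 mM sodium acetate pH 7; fibrils were detected with Thioflavin T.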
% is scaled to controls: 0 for no effect and ±100 for the full control effect; potency is read from the fitted curve at half-maximal effect; tags tell the direction and shape of the fitted curve.

Row | SMILES | Potency | activity, negative = inhibition
1 | Cc1cccc(-n2ncc(C(=O)NCc3ccco3)c2C2CCN(C(=O)OC(C)(C)C)CC2)c1 | inconclusive: 15.8 µM [inhibitor, single point] | –
2 | CCOC(=O)c1c(C)[nH]c(C(=O)C(C)Cl)c1C (stereo not drawn) | – | inactive: 0.578%
3 | CC1=CCC(/C=N\Nc2nnc3c(n2)[nH]c2ccccc23)CC1 (stereo not drawn) | inconclusive: 25.1 µM [inhibitor, partial curve] | –
4 | CC(=O)c1ccc(N2CCN(C(=O)CCC(=O)c3cccs3)CC2)cc1 | inconclusive: 1 µM [inhibitor, partial curve] | –
5 | CCN(CCC(=O)Nc1ccc(Br)c(C)c1)Cc1ccccc1 | inconclusive: 39.8 µM [inhibitor, partial curve, poor fit] | –
6 | CC(=O)/C(=C\Nc1ccc(OCc2ccccc2)cc1)c1ccccc1 | inconclusive: 25.1 µM [inhibitor, partial curve, poor fit] | –
7 | COc1ccc(NC(=O)c2sc3nc4c(cc3c2N)CCCCCC4)cc1Cl | inconclusive: 0.891 µM [inhibitor, full curve] | –
8 | CC/C(C)=N\N=C\c1c(O)n(CC)c2cc(C3=NNC(=O)CC3)ccc12 | active: 15.8 µM | –
9 | COc1cc(NS(=O)(=O)c2ccc(NC(=O)c3ccc(C(C)=O)cc3)cc2)nc(OC)n1 | – | inactive: -8.99%
10 | CC1(C)CC(N2CCCC2)=CC(=[N+]2CCCC2)C1 | – | inactive: 2.63%
11 | CC(=O)c1ccc2c(c1)C1C=CCC1C(c1ccncc1)N2 (stereo not drawn) | active: 14.1 µM | –
12 | COc1ccc2cc3cc(C(=O)NCCc4ccccc4)sc3nc2c1Cl | inconclusive: 0.447 µM [inhibitor, full curve, poor fit] | –
13 | CCOc1cc(C2C(C#N)=C(N)OC(C)=C2C(C)=O)c(Br)c(Br)c1OC(C)C (stereo not drawn) | inconclusive: 39.8 µM [inhibitor, single point] | –
14 | COc1cc(/C=C(\C#N)c2nc3ccc(C)cc3[nH]2)ccc1OC(C)C | inconclusive: 4.47 µM [inhibitor, full curve] | –
15 | COc1cccc(-c2cc(C(=O)O)no2)c1 | – | inactive: -20%
16 | Cc1cc(=O)oc(C)c1C(=O)OCC(=O)c1ccc(Br)cc1 | inconclusive: 17.8 µM [inhibitor, partial curve] | –
17 | Cc1ccc(C(=O)CC(SCC(=O)O)c2ccc([N+](=O)[O-])cc2)cc1 (stereo not drawn) | inconclusive: 11.2 µM [inhibitor, partial curve] | –
18 | COC(=O)c1c(NC(=O)COc2ccccc2Cl)sc2c1CCC(C(C)(C)C)C2 (stereo not drawn) | – | inactive: -6.04%
19 | Cc1cn2c(=O)cc(COC(=O)c3cccc(NC(=O)COc4ccc(Cl)cc4)c3)nc2s1 | inconclusive: 0.126 µM [inhibitor, full curve] | –
20 | C#CCSC1=C(C#N)C(c2cccs2)C(C(=O)OCC)=C(C)N1 (stereo not drawn) | inconclusive: 28.2 µM [inhibitor, single point] | –
21 | Cc1ccc2cccnc2c1NC(=S)NC(=O)c1ccccc1 | – | inactive: -17.3%
22 | O=C(c1cc(-c2ccco2)on1)N1CCN(c2ccccc2)CC1 | inconclusive: 28.2 µM [inhibitor, partial curve] | –

Row | SMILES | Potency | activity, negative = inhibition
23 | Cc1ccc(NC(=O)COC(=O)CCc2c[nH]c(=O)[nH]2)cc1 | inconclusive: 28.2 µM [inhibitor, single point] | –
24 | CCOC(=O)C1CCCN(C(=O)CSc2ccc(NC(C)=O)cc2)C1 (stereo not drawn) | – | inactive: -7.59%
25 | Cc1ccc2[nH]c3nc(CCCn4ccnc4-c4ccccc4)nnc3c2c1 | – | inactive: -7.93% [at 11.5 µM]
26 | O=C(NC(=S)Nc1ccccc1O)c1ccc(-c2ccc(Cl)cc2)o1 | inconclusive: 3.16 µM [inhibitor, partial curve] | –
27 | Cc1ccc(N=c2c([N+](=O)[O-])nn(-c3ccc4c(c3)OCCO4)n2O)c(Cl)c1 | inconclusive: 15.8 µM [inhibitor, partial curve] | –
28 | CCOc1ccc(Cc2n[nH]c(=S)n2Cc2ccccc2)cc1 | – | inactive: -10.1%
29 | CN(Cc1ccccc1)C(C(=O)NC1CCCCC1)c1ccc(Cl)cc1 (stereo not drawn) | – | inactive: -5.45%
30 | CC(=O)c1cnc2c(-c3ccc(Cl)cc3)cnn2c1C | inconclusive: 15.8 µM [inhibitor, partial curve, poor fit] | –
31 | CCc1nnc(NS(=O)(=O)c2ccc(NC(=S)NC(=O)/C=C/c3ccc(C(C)C)cc3)cc2)s1 | inconclusive: 15.8 µM [inhibitor, partial curve] | –
32 | Cn1c(-c2ccccc2)c(O)c(=O)c2ccccc21 | – | inactive: -9.83% [at 11.5 µM]
33 | COC(=O)CSC1=C(C#N)C(c2cccc(F)c2)CC(=O)N1 (stereo not drawn) | inconclusive: 25.1 µM [inhibitor, single point] | –
34 | COCCOC(=O)c1c(C)nc(SCC(=O)Nc2ccc(C)cc2)c(C#N)c1-c1ccco1 | – | inactive: -4.73%
35 | CCN(CC)c1ccc(C(=S)NCc2ccccc2)cc1 | inconclusive: 11.2 µM [inhibitor, partial curve] | –
36 | Nc1c(C(=O)Nc2ccccc2)sc2ncc([N+](=O)[O-])cc12 | inconclusive: 0.631 µM [inhibitor, full curve] | –
37 | CCOC(=O)/C=C/CCC/C=C/C(=O)c1ccccc1 | inconclusive: 22.4 µM [inhibitor, partial curve] | –
38 | COc1ccc(NC(=S)NC(NC(=O)c2ccccc2Cl)C(Cl)(Cl)Cl)c([N+](=O)[O-])c1 (stereo not drawn) | inconclusive: 17.8 µM [inhibitor, partial curve] | –
39 | COc1ccc(N2C(=O)[C@@H]3[C@H](C2=O)[C@H]2c4ccccc4C=CN2[C@@H]3C(=O)Nc2ccccc2)cc1 | inconclusive: 15.8 µM [inhibitor, partial curve] | –
40 | CN(C1CCCCC1)S(=O)(=O)c1ccc(NC(=O)C2CCCCC2)cc1 | – | inactive: -4.34%
41 | CCc1ccc(C(=O)c2c(N)c(-c3nc(-c4ccc5c(c4)OCO5)cs3)c3ccccn23)cc1 | inconclusive: 12.6 µM [inhibitor, partial curve] | –
42 | COc1ccc(/C=C2/SC(=O)N(CC(O)Cn3c4ccccc4c4ccccc43)C2=O)cc1 (stereo not drawn) | – | inactive: 3.54%
43 | O=C1NC(c2ccc(-c3ccccc3[N+](=O)[O-])o2)C(C(=O)c2ccc(Cl)cc2)C(O)(C(F)(F)F)N1 (stereo not drawn) | inconclusive: 15.8 µM [inhibitor, partial curve] | –
